In ChEMBL document CHEMBL1201862, “PubChem BioAssay data set” (2004):
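Each compound was tested at five concentrations against cells in 96-well plates for 48 hours. GI50 marks 50% less growth.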 Activity calls are given as the source filed them. Rule as the data show it: active = GI50 up to about 1.1 µM and inactive = higher.

test system: NCI-H322M; test: NCI anticancer screen, dose series, 48 h

SMILES | GI50
Nc1nc(Cl)nc2c1ncn2C1CCC(CO)O1 (stereo not given) | inactive: > 100 µM
CCOC(=O)c1c2c(n(-c3ccc(OC)cc3)c1C)C(=O)C(=O)c1ccccc1-2 | inactive: 1.77 µM
COc1ccc2c(c1)CCCC(Br)C2=O (stereo not given) | inactive: 16.6 µM
COc1cc([C@@H]2c3cc4c(cc3C[C@@H]3COC(=O)C32)OCO4)cc(OC)c1O (stereo not given in full) | active: 0.064 µM
O=C(Cc1ccccc1)NN1C(=O)C(Cl)C1c1ccccc1Cl (stereo not given) | inactive: > 100 µM
COc1cccc(/C=C2\CCC(CN(C)C)C2=O)c1 (stereo not given) | inactive: 17.1 µM
CN(C)CCCNC(=O)c1cccc2ccccc12 | inactive: > 100 µM
COc1cccc2c1C(=O)C1=C(C2=O)C(O)CC(C)(C)O1 (stereo not given) | inactive: 80 µM
Cc1cn(C2CC(N)C(C(=O)O)O2)c(=O)[nH]c1=O (stereo not given) | inactive: > 100 µM
COc1ccc(COCC[C@H](C)OC2OC(CO[Si](C)(C)C(C)(C)C)C(O)C(O)C2O)cc1 (stereo not given in full) | inactive: > 100 µM
CCC(=O)NC(Nc1ccc(O)cc1)(C(F)(F)F)C(F)(F)F | inactive: > 100 µM
CCOC(=O)C12C(=O)CCN1CCc1ccccc1C2C (stereo not given) | inactive: > 100 µM
COC(=O)[C@]12CSCN1C(=O)C(C(C)=O)=NN2C(=O)[C@](OC)(c1ccccc1)C(F)(F)F | inactive: > 100 µM
CCOC(=O)C1(Cc2ccc3ccccc3c2)CCCCCN1 (stereo not given) | inactive: 46.7 µM
COc1ccc(/C=C/C(C(=O)O)C(=O)O)cc1 | inactive: > 100 µM
COc1cc([C@@H]2c3cc4c(cc3[C@@H](Nc3ccc(/N=C\c5ccc(C(=O)O[C@@H](C(=O)O[C@H]6C[C@@]7(O)[C@@H](OC(=O)c8ccccc8)[C@@H]8[C@]9(OC(C)=O)CO[C@@H]9C[C@H](O)[C@@]8(C)C(=O)[C@H](OC(C)=O)C(=C6C)C7(C)C)[C@@H](NC(=O)c6ccccc6)c6ccccc6)cc5)cc3)[C@H]3COC(=O)[C@H]23)OCO4)cc(OC)c1O | inactive: > 24.8 µM
N#CCc1c(-c2ccccc2)n(S(=O)(=O)c2ccccc2)c2ccccc12 | inactive: > 100 µM
C/C(CC(=O)CCCC(=O)Nc1ccc(Cl)cc1Cl)=N/NC(=O)CC#N | inactive: > 100 µM
CCOP(=O)(OCC)C(c1ccc(F)cc1)N(C(=O)NC(F)(F)F)c1ccc(OC)cc1 (stereo not given) | inactive: > 100 µM
O=[N+]([O-])c1ccc2nc3n(c2c1)C(c1c(F)cccc1F)SC3 (stereo not given) | inactive: > 100 µM
C=C(C)CNC(=S)N(N)c1ccc2ccccc2c1 | inactive: > 100 µM
CCCCCCCC/C=C\CCCCCCC/C=C1\C[C@](/C=C/C(=O)OC)(CO)OC1=O | inactive: 13.8 µM
CCOC1(OCC)C2C=CC1C(COS(=O)(=O)c1ccc(C)cc1)C2COS(=O)(=O)c1ccc(C)cc1 (stereo not given) | inactive: 55.2 µM

SMILES | GI50
CCOC(=O)C1C(C)C2(C#N)C(=N)OC1(C)C2(C#N)C#N (stereo not given) | inactive: > 100 µM
COc1cc(C(=O)C/C(CCCC(=O)Nc2ccccc2[N+](=O)[O-])=N/NC(=O)c2cc3ccccc3cc2O)ccc1O | inactive: 24 µM
Clc1ccccc1/C=C\C1(c2ccccc2)OCCO1 | inactive: 28.8 µM
CCCc1cc(-c2ccc(-c3cc(CCC)c(C=O)[nH]3)s2)[nH]c1C=O | inactive: > 100 µM
CN1CCN(CCn2c3c4ccccc4ccc3c3oc(=O)c4ccccc4c32)CC1 | inactive: 7.16 µM
CC1(C)CC2=C(Sc3ccccc3N2)C(=O)C1C(=O)C(=O)Nc1cc(Cl)ccc1Cl (stereo not given) | inactive: > 100 µM
O=C1C(c2ccccc2)=C(c2ccccc2)C(c2ccc(Cc3ccc(C4=C(c5ccccc5)C(=O)C(c5ccccc5)=C4c4ccccc4)cc3)cc2)=C1c1ccccc1 | inactive: > 100 µM
Cn1c2cc([N+](=O)[O-])ccc2c(=O)c2c(O)cc3c(c21)C=CC(C)(C)O3 | inactive: > 100 µM
C/C=C\C(CC(=O)OC)CC(=O)N(CCC1CN(S(=O)(=O)C(F)(F)F)c2ccccc21)Cc1ccc(OC)cc1OC (stereo not given) | inactive: > 100 µM
CCOC(=O)C(C(=O)c1ccccc1C(=O)OC)=P(c1ccccc1)(c1ccccc1)c1ccccc1 | inactive: > 10 µM
CC1(C)OC(COP2OCCO2)[C@H](COP2OCCO2)O1 (stereo not given in full) | inactive: > 100 µM
Cc1cc(N(CCC#N)CCC#N)ccc1/C=C1N=C(/C=C\c2ccccc2)N(c2ccc(Cl)cc2)C\1=O | inactive: > 72.1 µM
N#CC1=C(N)OC2=C(CSc3ccccc32)C1c1ccc(Br)cc1 (stereo not given) | inactive: 17.3 µM
O=C1CCC2(CC1)Cc1ccccc1C2O (stereo not given) | inactive: > 100 µM
CCOC(=O)C(SCCO)C(C(=O)OCC)n1cc(C)c(=O)[nH]c1=O (stereo not given) | inactive: > 73.1 µM
CC1(C)N=C(c2ccccn2)C(c2ccccn2)=NC1(C)C | inactive: > 100 µM
Oc1ccc(-c2csc(N/N=C3\NC/C(=C/c4ccc5c(c4)OCO5)S3)n2)cc1O | inactive: 29.9 µM
[N-]=[N+]=NCC1OC(n2cnc3c(N)ncnc32)C2OC12 (stereo not given) | inactive: > 100 µM
Cc1cccc(N2CCN(S(=O)(=O)c3ccc(Cl)cc3)C2=N)c1C | inactive: 72.8 µM
CC1=C(C#N)C(=C(C#N)C#N)OC1(C)Cc1ccccc1 (stereo not given) | inactive: 56.9 µM
O=[N+]([O-])c1ccc(N=P(c2ccccc2)(c2ccccc2)c2ccccc2)n2nnnc12 | inactive: > 100 µM
COC1OC(Cn2cc([N+](=O)[O-])nc2C)C(O)C(O)C1O (stereo not given) | inactive: > 100 µM
CC(C)CCNC(=O)c1ccc(CNC(=O)/C=C/c2cccc(Oc3ccccc3)c2)cc1 | inactive: 71.4 µM

SMILES | GI50
CC(C)CNC1=NCC(C)S1 (stereo not given) | inactive: > 100 µM
COC1CCC(OS(C)(=O)=O)C(CO)O1 (stereo not given) | inactive: > 100 µM
NC(CCSCCF)C(=O)O (stereo not given) | inactive: > 100 µM
Cc1ccc(S(=O)(=O)N(/N=C(\N)Oc2ccc(Cl)cc2)C(=N)Oc2ccc(Cl)cc2)cc1 | inactive: > 100 µM
O=C(N/C(=C\c1ccc([N+](=O)[O-])cc1)c1nc2cc(Cl)ccc2[nH]1)c1ccccc1 | inactive: 25.8 µM
COc1cc([C@@H]2c3cc4c(cc3[C@@H](OC(=O)c3cccc(N)c3)C3COC(=O)[C@@H]32)OCO4)cc(OC)c1O (stereo not given in full) | inactive: 26.4 µM
O=C(O)C1C2CC3C(OC(=O)C31)C2Br (stereo not given) | inactive: > 100 µM
Cc1cccc(C(=O)O)c1C(=O)c1cccc2ccccc12 | inactive: > 100 µM
N#C/C(=C/NC(=S)Nc1ccc(S(N)(=O)=O)cc1)C(N)=O | inactive: > 100 µM
CCN(CC)/[N+]([O-])=N/OS(=O)(=O)N(C)C | inactive: > 100 µM
C[N+](C)(C)c1nc(N)nc2c1ncn2C1OC(CO)C(O)C1O (stereo not given) | inactive: > 100 µM
NC(=S)N/N=C(/CC(=O)c1ccccc1)C(=O)Nc1ccc(Cl)c(Cl)c1 | inactive: 49.9 µM
Cc1nc(C)c(N2CCN(S(N)(=O)=O)CC2)c(O)n1 | inactive: > 100 µM
N#C/C(C(=O)Nc1ccccc1)=C(/N)N1CCOCC1 | inactive: > 100 µM
Cc1sc2nc3n(c(=O)c2c1C)N=CN(c1ccccc1)C3 | inactive: > 100 µM
CC(Oc1ccc(OCC2CCCCC2)cc1)C(=O)OCC(=O)c1ccc(-c2ccccc2)cc1 (stereo not given) | inactive: > 100 µM
COC(=O)c1c2c(c(-c3ccccc3)c3c1-c1nc(Cl)ccc1CC3)CCc1ccc(Cl)nc1-2 | inactive: > 100 µM
COc1ccc(/C=C/C(=O)C(C)(C)CN2CCCCC2)cc1 | inactive: 25.1 µM
Cc1ccc(-c2cc(-c3ccccc3)nc(N)n2)c(O)c1 | inactive: > 100 µM
COC(=O)C1=C(c2ccc3c(c2)OCO3)OC(c2ccc3c(c2)OCO3)C1 (stereo not given) | inactive: > 100 µM
COC(=O)/C=C/c1ccc2c(c1)CC1(Cc3ccccc3C1)C2 | inactive: > 100 µM
Cc1ccc(C)n2c1nc1cc3ccccc3cc12 | inactive: 15.7 µM
NC(=O)C1=C(O)C[C@@H]2CC3Cc4cccc(O)c4C(=O)C3=C(O)[C@]2(O)C1=O (stereo not given in full) | active: 0.457 µM

SMILES | GI50
Cc1c2ccnc(O)c2cc2c(=O)c3cnccc3[nH]c12 | inactive: > 100 µM
O=C(/C=C/c1ccc(O)cc1)c1cc(O)cc(O)c1 | inactive: 16.4 µM
COc1ccc(Nc2nc3cc(C(F)(F)F)ccc3nc2-c2ccccc2)cc1OC | inactive: 58.7 µM
CCO/C=C1\N=C(c2ccc(Cl)c(Cl)c2)OC1=O | inactive: 64.4 µM
CC(C)(C)c1cc(-c2cc(C(C)(C)C)[nH]n2)[nH]n1 | inactive: > 100 µM
O=C(CO)CC(=O)C(=O)Nc1nc([N+](=O)[O-])cs1 | inactive: > 100 µM
O=C(CC1Sc2ccccc2NC1=O)Nc1cc(Cl)ccc1Cl (stereo not given) | inactive: > 100 µM
CN1CCc2c3n(c4cc(Br)ccc24)[C@H](O)CCCC31 (stereo not given in full) | inactive: 3.46 µM
CSc1ccc(/C=C2\CNC/C(=C\c3ccc(SC)cc3)C2=O)cc1 | inactive: > 82.4 µM
CCN(CC)C(=S)N/N=C(/C)c1cccc(/C(C)=N\NC(=S)N(CC)CC)n1 | active: 0.91 µM
Cc1c(NC(=O)CSC(=S)N2CCN(Cc3ccccc3)CC2)c(=O)n(-c2ccccc2)n1C | inactive: > 100 µM
COc1cccc(C23CCCC(C2)N(C)CC3OC(=O)c2ccccc2)c1OC (stereo not given) | inactive: 21 µM
CC1OC(OC2C(O[C@H]3CC[C@@H]4C(=CC[C@@H]5[C@@]4(C)C(=O)C[C@]4(C)[C@@H]([C@H](C)CC[C@@H](O)C(C)(C)O)CC[C@@]54C)C3(C)C)OC(CO)C(O)C2O)C(O)C(O)C1O (stereo not given in full) | inactive: > 100 µM
O=C(NC1(c2cc3ccccc3s2)CCCCC1)C1CCC1 | inactive: > 100 µM
COc1ccc(C23OCC(Cc4cc(OC)c(OC)cc42)C3COC(C)=O)cc1OC (stereo not given) | inactive: > 100 µM
Nc1ncnc2c1N=CN(Oc1ccccc1)N2 | inactive: > 100 µM
CCOC(=O)C(=O)Nc1ccc(Cl)cc1C | inactive: > 100 µM
CC1C[C@]2(C[C@@H](C)C(=O)O2)OC2CC3(C)C4CCC5C(C)(C)OC(=O)CC[C@@]56C[C@@]46CC[C@]3(C)C12 (stereo not given in full) | inactive: > 100 µM
COC1=C(C)C(=O)C2C(C1=O)C(c1ccc(OC)c(OC)c1)[C@H]2C (stereo not given in full) | inactive: > 100 µM
Cc1nn2c(N)cc(=O)nc2nc1/C=C/c1ccc(N(C)C)cc1 | inactive: > 48 µM
O=C(O)/C=C/c1c2ccc(=O)c(O)c-2oc2c(O)c(O)ccc12 | inactive: 30.1 µM
